Results reported in PubChem BioAssay AID588855 (National Center for Advancing Translational Sciences (NCATS), 2011).
Among all 410,000 compounds or so, about 5,000 (1.2%) were called active. The inconclusive results got no clear call from the source; some entries with a clear call stand among them for comparison. Calls come from the whole dose curve; as a rule, active = well fitted inhibition curve with a large enough effect; inconclusive = small, poorly fitted or top-dose-only effect; inactive = no such curve, though single readings can be large or run the other way. Where the call is inconclusive, the potency comes from a doubtful curve fit.

Test: qHTS for Inhibitors of TGF-b; note: nearly all actives have a fitted effect of over 65% in size
Conditions: HepG2 CAGA-GFP TGF-b/SMAD3 reporter, GFP fluorescence, 18 h, TGF-beta stimulated, 500 pg/mL final; series mostly up to 46.1 µM
Procedure, shortened: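 HEPG2 CAGA-GFP cells (1000/well, DMEM with 1% FBS) were pre-incubated 2 h at 37 degrees C, given compound by pin tool, then stimulated with TGF-beta at 500 pg/mL final for 18 h before per-cell GFP fluorescence imaging.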
Potency is the fitted concentration of half-maximal effect; tags give direction and shape of the fitted curve.

| SMILES | Potency |
| --- | --- |
| O=C(/C=C/c1ccc(Cl)cc1Cl)NC(=S)Nc1ccc(CN2CCOCC2)cc1 | inconclusive: 35.5 µM [inhibitor, partial curve, poor fit] |
| CN(CCCNC(=O)CCc1cn(C)c2ccccc12)C1CCCCC1 | inactive |
| O=C(CS(=O)CC(=O)NC12CC3CC(CC(C3)C1)C2)Nc1ccc(F)cc1 (stereo unspecified) | inactive |
| Cc1ccc(S(=O)(=O)c2c(N)n(CC3CCOC3)c3nc4ccccc4nc23)cc1 (stereo unspecified) | inconclusive: 35.5 µM [inhibitor, single point] |
| CCOc1ccccc1CNC(=O)CSc1nnc(C)c2c(C)n(-c3ccccc3)nc12 | inconclusive: 3.98 µM [inhibitor, full curve, poor fit] |
| COc1ccc(CNCCC(c2ccc(OC(C)C)cc2)C(C)C)cc1OC (stereo unspecified) | inconclusive: 35.5 µM [inhibitor, single point] |
| Cc1ccc(C(=O)OCC(=O)N(Cc2ccccc2)C(C)C)cc1C | inactive |
| CC(C)N(C(=O)CN1CCN(S(=O)(=O)c2ccc(Br)s2)CC1)C(C)C | inconclusive: 35.5 µM [inhibitor, single point] |
| CCOC(=O)C1=C(C)N(C)C(C)=C(C(=O)OCC)C1c1ccc(Cl)cc1 | inconclusive: 12.6 µM [inhibitor, partial curve, poor fit] |
| CCc1ccc(Nc2n[n+](-c3ccccc3)c(-c3ccc(OC)c(Br)c3)s2)cc1 | inconclusive: 15.8 µM [inhibitor, single point] |
| COc1ccc([C@H]2CC(=O)C=C(c3ccc(OC)cc3OC)C2)cc1 | inconclusive: 15.8 µM [inhibitor, partial curve, poor fit] |
| Cc1oc(-c2ccccc2Cl)nc1CS(=O)(=O)CC(=O)NC(C)c1ccccc1 (stereo unspecified) | inconclusive: 7.94 µM [inhibitor, partial curve] |
| Cc1ccccc1Cn1c2ccccc2c2cnn(CC(=O)N3CCN(c4ccccc4)CC3)c(=O)c21 | inconclusive: 5.62 µM [inhibitor, single point] |
| Cc1cccc(C)c1NC(=O)NN1C(C)CCCC1C (stereo unspecified) | inconclusive: 35.5 µM [inhibitor, single point] |
| CC(=O)Nc1cccc(C(=O)OCC(=O)c2ccc(S(=O)(=O)N3CCCCC3)cc2)c1 | inconclusive: 3.55 µM [inhibitor, single point] |
| COc1ccc(-c2noc(CSc3nnc(Cc4ccccc4)n3-c3cccc(C)c3)n2)cc1 | inconclusive: 35.5 µM [inhibitor, single point] |
| CCOc1cc(CNCCSc2nnnn2C)cc(Br)c1OCc1ccccc1F | inconclusive: 35.5 µM [inhibitor, single point] |
| CCN(CC)c1ccc2cc(C(C)=O)c(=O)oc2c1 | inactive |
| O=C(C(=Cc1ccc(F)cc1)c1ccccc1)c1ccc(O)cc1 | inconclusive: 22.4 µM [inhibitor, partial curve, poor fit] |
| O=C(Nc1ccc2c(c1)CN(C(=O)Nc1ccc(F)cc1)CC2)c1ccccn1 | inconclusive: 14.1 µM [inhibitor, partial curve, poor fit] |
| Cc1nn(-c2ccccc2)c(Cl)c1/C=C1\C(=O)N(C)C(=S)N1C | inactive |

| SMILES | Potency |
| --- | --- |
| CCC1CCCCN1S(=O)(=O)c1cc2c(cc1C)NC(=O)CO2 (stereo unspecified) | inactive |
| CCN1C(=O)[C@H]2[C@@H](c3ccc(-c4ccccc4)cc3)N[C@@](CC(C)C)(C(=O)OC)[C@H]2C1=O | inconclusive: 6.31 µM [inhibitor, single point] |
| Cc1ccc(Nc2ncc(C(=O)Nc3ccc(F)cc3F)c3ccccc23)cc1Cl | inconclusive: 2.82 µM [inhibitor, full curve, poor fit] |
| CCS(=O)(=O)N1Cc2ccccc2CC1C(=O)NCC12CC3CC(CC(C3)C1)C2 (stereo unspecified) | inactive |
| CNC(C)C(=O)NC(C(=O)NC(C(=O)Nc1cccc2ccccc12)C(C)C)C(C)C (stereo unspecified) | inconclusive: 15.8 µM [inhibitor, single point] |
| CCOc1ccc(N2C(=O)CC(N3CCC(O)(c4ccc(Br)cc4)CC3)C2=O)cc1 (stereo unspecified) | inconclusive: 3.55 µM [inhibitor, full curve, poor fit] |
| CCC(O)C1CCN(Cc2cn(-c3ccc(OC)cc3)nc2-c2cccc(F)c2)CC1 (stereo unspecified) | inconclusive: 35.5 µM [inhibitor, single point] |
| CC1CCC(NC(=O)Cn2ncc3c4ccccc4n(Cc4ccc(F)cc4)c3c2=O)CC1 (stereo unspecified) | inactive |
| COc1cccc(Oc2cn[nH]c2-c2ccc(OC)cc2O)c1 | inconclusive: 35.5 µM [inhibitor, single point] |
| COc1ccc([C@H]2CC(=O)C=C(c3cc(F)ccc3OC)C2)cc1 | inconclusive: 15.8 µM [inhibitor, single point] |
| O=S(=O)(c1cnc(Cl)c(Cl)c1)N1CCc2ccccc21 | inconclusive: 15.8 µM [inhibitor, single point] |
| Cc1cc(-c2ccc(C)c(S(=O)(=O)NCc3cccs3)c2)on1 | inactive |
| COc1ccc(Cn2c(SCc3ccc(C)cc3)nc3cc(OC)c(OC)cc3c2=N)cc1Cl | inconclusive: 7.08 µM [inhibitor, partial curve, poor fit] |
| CCC1(c2ccccc2)NC(=O)N(CC(=O)Nc2ccc(OC)nc2)C1=O (stereo unspecified) | inactive |
| CC1(C)COC2(OC1)C(=O)N(CN1CCOCC1)c1ccccc12 | inactive |
| COc1cccc2c1C1COC3C4CC(C(=O)O)C(C(C2)N13)N4C (stereo unspecified) | inconclusive: 20 µM [inhibitor, single point] |
| Cc1ccc2cccc(OC(=O)/C=C\c3ccccc3)c2n1 | inconclusive: 35.5 µM [inhibitor, single point] |
| O=[N+]([O-])c1ccc(Cl)cc1Sc1nc2ccccc2o1 | inconclusive: 35.5 µM [inhibitor, single point] |
| CCn1c2ccccc2c2cc(NC(=O)C/C(C)=N/NC(=O)c3ccccc3N)ccc21 | inconclusive: 14.1 µM [inhibitor, single point] |
| C=C(C)COc1ccc(-c2n[nH]c(C)c2-c2ccccc2)c(O)c1 | inconclusive: 35.5 µM [inhibitor, partial curve, poor fit] |
